Experimental data reported in PubChem BioAssay AID1814 (Broad Institute, 2009).
About 22,000 (7.3%) of roughly 300,000 compounds were called active. The shares of active, inactive and inconclusive entries below differ from those in the screen. Cut-off read from the data, not from the text of the source: active = activity score below about -60%; inconclusive = mostly about -28% to -61%; inactive = positive scores.

assay: Activators via SNCA 5'UTR binding, MLPCN (AID 1814); details: alpha-synuclein 5'UTR reporter, activators screen; stronger effect = lower value; tested at 7.5 µM

SMILES | activity score
CCN(CC)S(=O)(=O)c1csc(C(=O)Nc2ccccn2)c1 | inconclusive: -54.8%
O=C1OC(Cc2ccccn2)C(=O)C1=C1SCCS1 (stereo not given) | inconclusive: -43.8%
COc1ccc(C(=O)CSc2n[nH]c(=O)n2Cc2ccco2)cc1 | inconclusive: -56.2%
COc1ccc(NC(=O)c2c(C)noc2-c2snnc2C)cc1 | inconclusive: -60.3%
Cc1ccc(N2C(=O)c3ccccc3C2C(=O)c2ccc(C)c(C)c2O)cc1 (stereo not given) | inconclusive: -55.9%
S=c1[nH]nc(-c2ccco2)n1/N=C/C=C/c1ccccc1 | inconclusive: -45.8%
Cc1ccc(NC(=O)CSc2n[nH]c(-c3ccccn3)n2)cc1 | inactive: 58.5%
Nn1c(Nc2ccccc2)nc2sc3c(c2c1=O)CCC3 | inconclusive: -60.9%
COc1ccccc1NC(=O)CN(Cc1ccco1)C(=O)c1ccc(Cl)nc1 | inconclusive: -50.8%
Cc1c(C(=O)NCc2ccccn2)oc2ccccc12 | active: -138%
CCOc1ccc(CCNC(=O)Cn2ncn3nc(-c4ccc(OC)cc4)cc3c2=O)cc1 | inconclusive: -53.4%
CCC(C)Nc1nc(N)c([N+](=O)[O-])c(NCc2ccccc2)n1 (stereo not given) | inactive: 64.7%
Cc1ccccc1OCC(O)CNC1CCC(NCC(O)COc2ccccc2C)CC1 (stereo not given) | inactive: 99.2%
O=C1CN(c2ccccc2)C(=S)N1C(=O)c1ccc(Br)cc1 | active: -150%
CCC(=O)NC(c1ccc(OC)cc1)c1cc(Cl)c2cccnc2c1O (stereo not given) | inactive: 80.7%
COc1ccc(/C=C2\SC(=O)N(CCn3cnnn3)C2=O)cc1 | inconclusive: -53.1%
Cc1cc(C)c2nc(C)cc(N/N=C/c3ccc(O)cc3)c2c1 | inactive: 112%
CCN(CC)S(=O)(=O)c1ccc(-c2nnc(SCc3nnc(-c4ccccc4)o3)o2)cc1 | inconclusive: -51.5%
COc1ccc(/C=N\n2nnc3ccccc32)cc1 | inactive: 72.9%
C/C(N)=C(/C#N)C(=O)COC(=O)c1ccccc1O | inconclusive: -46.1%
CC(C)Cc1cc(-c2ccco2)c(C#N)c(N)n1 | inactive: 69.8%
Cn1c(NC(=O)c2cc(-c3ccc4c(c3)OCO4)nc3ccccc23)cc(=O)n(C)c1=O | inconclusive: -43.4%
CCNc1nc(Oc2ccc(C#N)cc2)cc(C(F)(F)F)n1 | inactive: 58.9%
O=C(COc1ccc(Br)cc1Br)NC(=S)Nc1cccc(CO)c1 | inconclusive: -33.8%

SMILES | activity score
Cc1cc(C)c(C(=O)CSc2nnc(N)s2)cc1C | inconclusive: -60.9%
Nc1nc(-c2cccc(F)c2)cs1 | inconclusive: -30.2%
O=C(c1nnsc1S(=O)c1ccc(Cl)cc1)N1CCOCC1 (stereo not given) | inconclusive: -50%
N/C(COc1ncn(-c2ccccc2)n1)=N\S(=O)(=O)c1ccccc1 | inactive: 18%
c1cnc(Oc2ccc3oc4ccccc4c3c2)nc1 | inconclusive: -55%
C=C1[C@@H](C)C2[C@H](Cc3ccccc3)NC(=O)[C@]23OC(=O)CC[C@H](O)CCC[C@H](C)C/C=C/[C@H]3[C@@H]1O (stereo not given in full) | inactive: 80.4%
Cc1ccc(C)c(Cn2c(O)c(N=NC(=S)Nc3ccccc3F)c3ccccc32)c1 | inactive: 71.8%
O=C(CCn1c(=O)oc2ccccc21)N1CCc2ccccc21 | inconclusive: -60.5%
O=C(CNC(=S)NC(=O)c1ccco1)c1ccccc1 | active: -79.7%
CCOC(=O)c1sc(NC(=O)CSc2nc3c(cc2C#N)CCCCCC3)c(C#N)c1C | active: -74%
O=c1c2ccc(Cl)cc2nc(-c2cccc(C(F)(F)F)c2)n1O | inactive: 77.5%
O=C(Nc1nccs1)c1sc2ccccc2c1Cl | inactive: 52.5%
S=C(NCc1ccco1)Nc1cc(Cl)c(Cl)cc1Cl | inconclusive: -40.4%
S=C(NCCc1ccccn1)NC1CCCCC1 | inconclusive: -60.8%
CCC(=O)NC(=S)Nc1ccc(NC(=O)c2ccco2)cc1 | active: -86.4%
O=c1c2ccccc2nnn1CSc1nnnn1-c1ccccc1 | inconclusive: -60.4%
O=c1oc(Nc2ccc(F)cc2)nc2ccccc12 | inconclusive: -49.2%
CCN(C(C)=O)c1nnc(CSc2nc3ccccc3s2)s1 | inconclusive: -55.7%
O=C(COc1ccc(Cl)cc1Cl)Nc1ccc(C(=O)Nc2ccccc2C(=O)O)cc1 | inconclusive: -49%
CCN(CC)C(=O)C(C)N(C#N)c1nc(Cl)nc(N(C)C)n1 (stereo not given) | active: -122%
O=C(Cc1ccccc1F)Nc1nc(-c2ccc(F)cc2)cs1 | inconclusive: -54.4%
Oc1ccccc1/C=N/Nc1nccnc1Cl | inactive: 88.4%
COC(=O)c1c(-c2ccc(F)cc2)csc1NC(=O)C1CCCO1 (stereo not given) | active: -84.8%
CC(=O)c1ccc(OCc2cc(C(=O)N3CCN(c4ccccc4)CC3C)no2)cc1 (stereo not given) | active: -163%

SMILES | activity score
CNC[C@@H](Cc1ccccc1)NC[C@@H](CC1CCCCC1)NCCCc1ccccc1 | inactive: 125%
Cn1c(COc2ccccc2Br)nc2ccccc21 | active: -145%
Fc1ccc(-c2nc3ccncc3[nH]2)cc1 | inconclusive: -56.3%
CCCn1c(-c2cccc([N+](=O)[O-])c2)nc2c1c(=O)[nH]c(=O)n2Cc1ccccc1 | inactive: 53.9%
Nc1sc(-c2ccccc2)cc1C(=O)N/N=C/c1ccc(Cl)cc1 | inconclusive: -57.2%
COc1cccc(C(=O)Nc2cc(C(F)(F)F)ccc2Cl)c1 | inconclusive: -48.8%
CCOC(=O)C(Cc1c[nH]c2ccccc12)NC(=O)c1ccccc1Br (stereo not given) | inconclusive: -55.7%
S=C(N/N=C/c1ccc2ncccc2c1)Nc1cccnc1 | inactive: 59%
O=C(COC(=O)c1ccccc1NCc1ccco1)Nc1ccc2c(c1)OCO2 | active: -66.5%
Fc1ccc(NC(=S)NCCc2ccc(Cl)cc2)cc1 | inconclusive: -58.3%
Cc1ccc(C(=O)CN2C(=O)c3ccccc3S2(=O)=O)cc1 | inactive: 109%
CCN(CC)C(=O)COc1cccc2ccccc12 | inconclusive: -33.3%
CCOC(=O)COn1c(=O)c(-c2cc3ccccc3o2)[n+]([O-])c2ccccc21 | active: -114%
COc1cccc(-c2nn3c(-c4ccco4)nnc3s2)c1 | inconclusive: -58.7%
C/C(=N\NC(=O)c1ccc(C)cc1)c1c(C)[nH]n(-c2ccccc2)c1=O | inactive: 66.8%
COc1ccc(CCC(=O)N2c3ccccc3CC2C)cc1 (stereo not given) | inconclusive: -52.7%
N#Cc1c(NC(=O)C2CCCO2)sc2c1CCCCCC2 (stereo not given) | active: -97.5%
Clc1ccc(-c2cc(-c3ccccn3)on2)c(Cl)c1 | inactive: 108%
CCOc1ccc(C(=O)Nc2cc(OC)ccc2OC)cc1 | active: -88.9%
c1ccc2[nH]c(CSc3nc4ccccc4o3)nc2c1 | active: -77.7%
COc1ccc(CCn2c(N)c(C(=O)NCc3ccco3)c3nc4ccccc4nc32)cc1OC | inconclusive: -51.2%
CSCc1c(C(=O)NC2CCCc3ccccc32)oc2ccccc12 (stereo not given) | inactive: 50.7%
Cc1nc(NC(=O)C2CCCC2)sc1Cc1ccc2c(c1)OCO2 | inconclusive: -57.1%
C(=N\Nc1nc2ccccc2[nH]1)/c1ccc2ncccc2c1 | inactive: 94.6%

SMILES | activity score
COc1cc(/C=N/NC(=O)c2ccc(-c3ccccc3)cc2)cc(OC)c1OC | inconclusive: -58.8%
Cc1ccc(Nc2c([N+](=O)[O-])c(=O)n(C)c3ccccc23)cc1C | inconclusive: -51.9%
CNC(=O)c1ccc(NC(=O)/C=C/c2cccc(F)c2)cc1 | active: -97.7%
CC(C)n1cnc2c(Nc3cccc(Cl)c3)nc(N(CCO)CCCO)nc21 | inactive: 64.7%
CCc1ccc(-c2nnn(CCC(=O)OC)n2)cc1 | inactive: 77.1%
CC(C)CCSc1nc(N)c(C#N)cc1C#N | inconclusive: -37.4%
O=[N+]([O-])c1ccc(Cl)cc1Sc1nc2ccccc2o1 | inactive: 68.6%
Cc1nnc(N2C(=O)C(=O)/C(=C(\O)c3ccc4c(c3)CC(C)O4)C2c2ccccc2)s1 (stereo not given) | inconclusive: -53.7%
Cc1ccc(C(=O)Nc2cccc(C(=O)NC3CCCC3)c2)cc1 | inconclusive: -54%
CCN=C1S/C(=C\c2ccc(Sc3ccc(Cl)cc3)o2)C(=O)N1CC | inactive: 56.5%
S=C(N/N=C/c1ccc2ncccc2c1)Nc1ccccc1 | inactive: 108%
CCOC(=O)Cc1csc(NC(=O)Nc2ccccc2)n1 | inconclusive: -45.8%
COc1ccc(C(=O)Nc2ccc(OC)c(OC)c2)cc1 | active: -97.6%
CCOc1ccc2nc(N3C(=O)/C(=C/c4ccccc4)NC3=S)sc2c1 | inconclusive: -50%
O=C(/C=C\c1ccco1)Nc1cc([N+](=O)[O-])ccc1F | inactive: 97.4%
O=C(NCc1ccccn1)c1ccc(Cn2c(=S)[nH]c3ccc(Br)cc3c2=O)cc1 | inactive: 40.4%
CCNc1nc(N)nc(Oc2ccc(C(=O)OC)cc2)n1 | active: -71.2%
O=C(Nc1ccc2nc3n(c(=O)c2c1)CCCCC3)c1c(F)ccc([N+](=O)[O-])c1F | inactive: 84.9%
CCCNC1=C(N(C(C)=O)c2cccc(F)c2)C(=O)c2ccccc2C1=O | inactive: 91.7%
CCOC(=O)c1[nH]c(C)c(C(=O)c2cc(F)ccc2F)c1C | inactive: 73.9%
CCOCCN1CCN(c2c(C)c(C)nc3cc(-c4cc(OC)cc(OC)c4)nn23)CC1 | inconclusive: -56.6%
O=C(O)C1CCCN1c1ncnc2c1oc1ccccc12 (stereo not given) | inconclusive: -43.8%
Cc1ncc(CO)c(/C=N/NC(=O)c2cc(O)c(O)c(O)c2)c1O | inconclusive: -26.2%
